Assay results: PubChem BioAssay AID1460 (National Center for Advancing Translational Sciences (NCATS), 2008)
The campaign covered roughly 270,000 compounds. About 5,800 (2.1%) were called active. The shares of active, inactive and inconclusive entries below differ from those in the screen. The call rests on the fitted dose curve; in most records, active means well fitted inhibition curve with a large enough effect; inconclusive means small, poorly fitted or top-dose-only effect; inactive means flat fitted curve, though single readings scatter. Potencies beside an inconclusive call are fits to weak or partial responses and may not hold up.

biological target: Microtubule-associated protein tau (Homo sapiens) (UniProt P10636); assay: qHTS for Inhibitors of Tau Fibril Formation, Thioflavin T Binding; details: recombinant tau K18 P301L (four-repeat tau fragment), heparin-induced fibrillization, ThT fluorescence; series mostly up to 57.4 µM; activity, negative = inhibition: at the top concentration; further: nearly all actives have a fitted effect of over 55% in size
Method in brief: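 Heparin-induced fibrillization of the P301L-mutant K18 repeat-domain fragment of human tau was followed by ThT binding in quantitative high-throughput format.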
On the % scale 0 is the no-effect control and ±100 the full control effect; potency means the concentration at half of the fitted maximal effect; tags describe the fitted curve by direction and shape.

UniProt P10636, sequence (P10636 whole entry, looked up, the tested form may be a part): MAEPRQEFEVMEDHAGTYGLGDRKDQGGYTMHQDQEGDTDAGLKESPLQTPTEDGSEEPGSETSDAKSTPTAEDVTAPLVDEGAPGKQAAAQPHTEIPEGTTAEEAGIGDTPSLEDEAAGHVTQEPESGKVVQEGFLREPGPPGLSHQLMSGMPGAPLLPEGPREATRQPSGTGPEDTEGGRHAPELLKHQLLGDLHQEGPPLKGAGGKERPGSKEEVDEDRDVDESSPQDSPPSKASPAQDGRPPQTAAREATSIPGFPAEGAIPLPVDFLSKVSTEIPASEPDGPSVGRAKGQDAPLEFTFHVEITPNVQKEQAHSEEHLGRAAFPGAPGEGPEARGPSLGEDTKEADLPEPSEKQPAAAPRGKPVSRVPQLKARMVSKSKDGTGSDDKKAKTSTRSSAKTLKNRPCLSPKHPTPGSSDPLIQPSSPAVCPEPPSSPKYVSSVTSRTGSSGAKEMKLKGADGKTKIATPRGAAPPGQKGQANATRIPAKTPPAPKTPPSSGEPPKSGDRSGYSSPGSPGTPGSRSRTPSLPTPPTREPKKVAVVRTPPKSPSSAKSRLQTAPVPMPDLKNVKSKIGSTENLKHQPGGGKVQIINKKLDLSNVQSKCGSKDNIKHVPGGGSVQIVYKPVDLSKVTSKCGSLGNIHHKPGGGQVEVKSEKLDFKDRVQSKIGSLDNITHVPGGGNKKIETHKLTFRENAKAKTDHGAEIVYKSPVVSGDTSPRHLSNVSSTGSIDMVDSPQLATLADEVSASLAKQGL

Row | Structure (SMILES) | Potency | activity, negative = inhibition
1 | Cc1ccc2oc(=O)c(-c3nc4ccc(C)cc4[nH]3)cc2c1 | inconclusive: 2.51 µM [inhibitor, partial curve, poor fit] | 
2 | c1ccc2c(N3CCNCC3)nsc2c1 | active: 22.4 µM | 
3 | CN1CCN(c2ccc([N+](=O)[O-])c(NCc3ccco3)c2)CC1 | inconclusive: 28.2 µM [inhibitor, partial curve] | 
4 | Cc1cccc(C2=NCC(=O)N(CC(=O)NCc3ccco3)c3sc4c(c32)CCCC4)c1 | inconclusive: 39.8 µM [inhibitor, single point] | 
5 | CN[C@@H]1C[C@@]2(C)O[C@@H]([C@@H]1OC)n1c3ccccc3c3c4c(c5c6ccccc6n2c5c31)C(=O)NC4 | inconclusive: 14.1 µM [inhibitor, partial curve] | 
6 | NNCc1ccccc1 | inconclusive: 1.26 µM [inhibitor, full curve, poor fit] | 
7 | Cc1ccc2nc(N3CCC(C(=O)N4CCC5(CC4)OCCO5)CC3)sc2c1 | inconclusive: 3.16 µM [inhibitor, full curve] | 
8 | Cc1nn(Cc2ccccc2Cl)c(Cl)c1C(=O)O |  | inactive: -1.93%
9 | O=C(N/N=C/c1c(O)n(Cc2ccc(F)cc2)c(=S)[nH]c1=O)c1ccncc1 | inconclusive: 10 µM [inhibitor, partial curve] | 
10 | Cc1nn(Cc2ccccc2)c(C)c1C=C1C(=O)NC(=O)NC1=O | inconclusive: 3.55 µM [inhibitor, full curve] | 
11 | COc1ccc2c(c1)c(C(=O)O)c(C)n2CC(C)C |  | inactive: 4.25%
12 | CCOc1cccc(=NC2CCCCC2)c2c(C)[nH]c(C)c12 | active: 8.91 µM | 
13 | CC12CCC3C(CC=C4CC5(CCC43C)OCCO5)C1CCC2=O (stereo unspecified) | inconclusive: 39.8 µM [inhibitor, single point] | 
14 | COc1cccc(C2(C#N)CCN(C)CC2)c1 |  | inactive: -5%
15 | Cc1nc2ccc(Nc3nc4cc(S(=O)(=O)N5CCOCC5)ccc4o3)cc2s1 | inconclusive: 25.1 µM [inhibitor, single point] | 
16 | CC[C@]1(O)CC(O[C@@H]2CC(N(C)C)C(O)C(C)O2)c2c(cc3c(c2O)C(=O)c2c(O)ccc(O)c2C3=O)C1C(=O)OC (stereo partly specified) | inconclusive: 15.8 µM [inhibitor, partial curve] | 
17 | CCCCn1c(O)c(C(CC)=Nc2ccc(OCC)cc2)c(=O)[nH]c1=O | inconclusive: 20 µM [inhibitor, partial curve, poor fit] | 
18 | C=CCNc1nnc(Sc2ncccc2[N+](=O)[O-])s1 | inconclusive: 14.1 µM [inhibitor, partial curve] | 
19 | C=CCOC(=O)C1=C(C)OC(N)=C(C(=O)OCC)C12C(=O)N(CC(N)=O)c1ccccc12 (stereo unspecified) | inconclusive: 28.2 µM [inhibitor, single point] | 
20 | CCc1ccc(-n2nc(C)c3c(C(=O)NCCc4ccc(OC)c(OC)c4)cc(C)nc32)cc1 | inconclusive: 15.8 µM [inhibitor, partial curve] | 
21 | CCCc1cc2c(n1Cc1ccc(C)cc1)C(C)C1CN(C(=O)c3ccccc3)C(C)(C(=O)OC)C21 (stereo unspecified) | inconclusive: 1 µM [inhibitor, full curve] | 
22 | O=C1NC(=O)N(c2ccccc2)C(=O)/C1=C/c1ccc(Sc2ccccc2)o1 | inconclusive: 22.4 µM [inhibitor, partial curve, poor fit] | 

Row | Structure (SMILES) | Potency | activity, negative = inhibition
23 | CCCCCn1c(=O)c(C(=O)Nc2cnccn2)c(O)c2ccccc21 |  | inactive: -3.52%
24 | CCOC(=O)c1c(NC(=O)c2c(N)n(CCCOC)c3nc4ccccc4nc23)sc2c1CCCC2 | inconclusive: 22.4 µM [inhibitor, partial curve, poor fit] | 
25 | CN1CCN(c2ccc(N)cc2Cl)CC1 | inconclusive: 15.8 µM [inhibitor, partial curve] | 
26 | CCCCCOc1ccc(C)cc1CN(CCCl)CCCl | inconclusive: 28.2 µM [inhibitor, single point] | 
27 | CC1(C)C(=O)C=C[C@]2(C)[C@H]3CC[C@@]4(C)[C@H](c5ccoc5)OC(=O)[C@H]5O[C@]54[C@]3(C)[C@H](O)C[C@@H]12 | inconclusive: 14.1 µM [inhibitor, partial curve, poor fit] | 
28 | C[n+]1c2cc(N)ccc2cc2ccc(N)cc21 | inconclusive: 1.26 µM [activator, full curve] | 
29 | COc1ccc(/C=C2/C(=O)NC(=O)N(c3ccc(C)c(C)c3)C2=O)cc1CN1C(=O)c2ccccc2C1=O | inconclusive: 5.01 µM [inhibitor, full curve, poor fit] | 
30 | COc1ccc(/C=C2/C(=O)NC(=O)N(c3ccccc3)C2=O)cc1CN1C(=O)c2ccccc2C1=O | inconclusive: 28.2 µM [inhibitor, single point] | 
31 | CCN(CC)c1ccc(/C=C2\C(=O)NC(=O)N(Cc3ccco3)C2=O)cc1 | inconclusive: 5.62 µM [inhibitor, partial curve] | 
32 | COc1cc2c(cc1O)C(CCc1ccc(Cl)cc1)N(C)CC2 (stereo unspecified) |  | inactive: -7.43%
33 | O=C(O)CC/C(=C\c1cc([N+](=O)[O-])ccc1Cl)c1nc2ccccc2s1 | inconclusive: 28.2 µM [inhibitor, single point] | 
34 | Cc1ccc(OP(=O)(NCc2ccccc2)Oc2ccc(C)cc2)cc1 | inconclusive: 14.1 µM [inhibitor, partial curve] | 
35 | CC(C)CCCn1c(O)c(/C=C2/C=CC=N2)c(=O)[nH]c1=O | inconclusive: 31.6 µM [inhibitor, single point] | 
36 | O=C1NC(=S)NC(=O)C1=Cc1cccc2cc3ccccc3cc12 | active: 11.2 µM | 
37 | Cc1ccc(N2C(=O)NC(=O)/C(=C\C=C\c3ccco3)C2=O)cc1C | active: 12.6 µM | 
38 | O=C1c2ccccc2C(=O)N1SC1CCCCC1 | inconclusive: 14.1 µM [inhibitor, partial curve] | 
39 | O=C(CSc1ncnc2c1nnn2-c1ccc(F)cc1)NCC1CCCO1 (stereo unspecified) | inconclusive: 5.01 µM [inhibitor, full curve] | 
40 | Nc1ccccc1-[n+]1c(-c2ccccc2)cc(-c2ccccc2)cc1-c1ccccc1 | inconclusive: 3.16 µM [inhibitor, full curve, poor fit] | 
41 | O=C1CC[C@@]2(O)C3Cc4ccc(O)c5c4C2(CCN3CC2CC2)[C@H]1O5 (stereo partly specified) | inactive | 
42 | COC(=O)C(=O)N1CC2(C)CNCC(C)(C1)C2=O |  | inactive: -8.93%
43 | Cc1c(N=Nc2c(O)n(C)c(=O)n(C)c2=O)c(=O)n(-c2ccccc2)n1C | inconclusive: 20 µM [inhibitor, single point] | 
44 | Cc1ccc(N2C(=O)NC(=O)/C(=C/c3ccc(-c4ccc(C(=O)O)c(Cl)c4)o3)C2=O)cc1 | inconclusive: 7.94 µM [inhibitor, full curve] | 

Row | Structure (SMILES) | Potency | activity, negative = inhibition
45 | Cc1ccc(C=C2C(Cl)=C(Cl)C(Cl)=C2Cl)cc1 | active: 15.8 µM | 
46 | Cc1ccccc1N1C(=O)NC(=O)/C(=C\c2cnn(-c3ccccc3)c2)C1=O |  | inactive: -9.32%
47 | OCCCc1ccc(O)c(O)c1 | inconclusive: 39.8 µM [inhibitor, single point] | 
48 | CNc1cc(N2CCN(C)CC2)ccc1[N+](=O)[O-] | inconclusive: 15.8 µM [inhibitor, partial curve] | 
49 | Cc1cccc(N2CCN(C(=O)CCCCn3c(=O)[nH]c4ccsc4c3=O)CC2)c1C | inconclusive: 12.6 µM [inhibitor, partial curve, poor fit] | 
50 | CC1(C)Cc2c(sc3nc4n(-c5ccccc5)c(=O)c(CCC(=O)O)nn4c(=O)c23)CO1 | inconclusive: 25.1 µM [inhibitor, partial curve] | 
51 | CCOC(=O)C1=C(C)OC(N)=C(C#N)C12C(=O)N(C)c1ccccc12 (stereo unspecified) |  | inactive: -0.848%
52 | N#CC1=C(N)Oc2n[nH]c(-c3cccs3)c2C1c1ccsc1 (stereo unspecified) | active: 12.6 µM | 
53 | CN(C)c1ccc(C=C(C#N)C#N)cc1 | inconclusive: 7.08 µM [inhibitor, partial curve] | 
54 | Cc1cccc(-n2c(/C=C/c3c[nH]c4ccccc34)nc3ccccc3c2=O)c1 | inconclusive: 3.55 µM [inhibitor, partial curve, poor fit] | 
55 | CCCCn1c(O)c(C(CC)=NCCN2CCCCC2)c(=O)[nH]c1=O | inconclusive: 14.1 µM [inhibitor, partial curve] | 
56 | O=Cc1cn(CCCOc2ccccc2)c2ccccc12 | inconclusive: 39.8 µM [inhibitor, single point] | 
57 | Cc1cccc(N2C(=O)NC(=O)/C(=C/c3ccc([N+](=O)[O-])o3)C2=O)c1 |  | inactive: 0.197%
58 | COc1ccc(N2C(=O)NC(=O)/C(=C\c3ccccc3[N+](=O)[O-])C2=O)cc1 | inconclusive: 10 µM [inhibitor, partial curve] | 
59 | C=CCN1C(=O)C2(C(C(=O)OCC)=C(N)Oc3ccccc32)c2c1c1ccccc1oc2=O (stereo unspecified) |  | inactive: 1.2%
60 | NCCNc1ccc([N+](=O)[O-])c2cccnc12 | inconclusive: 31.6 µM [inhibitor, partial curve] | 
61 | CCOP(=S)(OCC)Oc1cc(C)oc(=O)c1Cl | inconclusive: 35.5 µM [inhibitor, single point] | 
62 | N[C@]1(C(=O)O)CC[C@@H](C(=O)O)C1 (racemic) | inactive | 
63 | Cc1nc2ccccc2c(=O)n1-c1cccc(O)c1 |  | inactive: 0.909%
64 | CCOC(=O)C1(CCCc2ccccc2)CCN(C2CCCC2)CC1 | inconclusive: 39.8 µM [inhibitor, single point] | 
65 | COC(=O)C1C(c2ccccc2)C2C(=O)c3c(OC)cc(OC)cc3O[C@@]12c1ccc(OC)cc1 (stereo partly specified) |  | inactive: -8.22% [at 11.5 µM]
66 | Cn1cccc1/C=C1\C(=O)NC(=O)N(CCC2=CCCCC2)C1=O | inconclusive: 2.82 µM [inhibitor, full curve] | 
